# Experimental data reported in patent publication EP1220870B1, “METAL-BINDING COMPOUNDS AND USES THEREFOR” (DMI Biosciences, Inc., priority 1999, dated 2001).
# Several values for one entry are separate records, joined by “and”; a condition that tells them apart may be missing. Identical values can stand only once. Part of at least one peptide drawing is inferred or uncertain, most often the ends. Marks after values point to notes of the source that are not given here. Non-standard residues stand in square brackets, D forms with d. Residues, ends and D or L forms follow the SMILES beside them.
# Assays:
# [1] = system: hydroxyl radicals; assay: Cu(II)/H2O2 hydroxyl radical generation, 2-deoxy-D-ribose degradation (thiobarbituric acid) assay; type: biochemical; conditions: CuCl2 0.1 mM, H2O2 2.0 mM; for Percent Inhibition: degradation of 2-deoxy-D-ribose
# [2] = system: isolated blood-perfused rat heart; assay: Langendorff reperfusion model: isolated blood-perfused heart, 30 min global zero-flow ischemia, 40 min reperfusion; type: in vivo, Male Wistar rats; conditions: for recovery of LVDP (percent of baseline pre-intervention value): drug infused 2 min before ischemia and 2 min at onset of reperfusion, saline control 15.3 ± 3.2%
# [3] = system: hydroxyl radicals; assay: Inhibition of hydroxyl radical production, Cu(II)/ascorbic acid deoxyribose TBA assay (Example 10); type: biochemical; conditions: for % Inhibition: percent decrease in absorbance compared to buffer alone
# [4] = system: plasmid pBR322 DNA; assay: Protection of DNA: DNA strand breaks by copper/ascorbate, agarose gel electrophoresis; type: biochemical
# [5] = system: hydroxyl radicals; assay: Cu(II)/ascorbic acid hydroxyl radical generation, 2-deoxy-D-ribose degradation (thiobarbituric acid) assay, D-tetrapeptide titration; type: biochemical; conditions: Cu(II) 10 µM, ascorbic acid 500 µM
# [6] = system: Focal ischemic infarcts; assay: Brain ischemia model: 2 h middle cerebral artery (MCA) occlusion and reperfusion, infarct volume and neurological examination; type: in vivo, male Wistar rats
# [7] = end of the 40 min reperfusion period
# [8] = first absorbance column (copper only 0.767*), compound/copper 1:1
# [9] = first absorbance column (copper only 0.767*), compound/copper 2:1
# [10] = second absorbance column (copper only 0.954), compound/copper 1:1
# [11] = second absorbance column (copper only 0.954), compound/copper 2:1
structure (smiles),measurement,setting,value
C[C@H](NC(=O)[C@@H](N)CC(=O)O)C(=O)N[C@@H](Cc1c[nH]cn1)C(=O)N[C@@H](CCCCN)C(=O)O [L-Asp L-Ala L-His L-Lys] (H-DAHK-OH),OD at 532 nm,"[1]; tetrapeptide 0.12 mM (Cu(II):tetrapeptide 1:1.2), control OD 0.124",0.077
same,OD at 532 nm,"[1]; tetrapeptide 0.2 mM (Cu(II):tetrapeptide 1:2), control OD 0.175",0.048
same,Percent Inhibition,[1]; tetrapeptide 0.12 mM (1:1.2),38%
same,Percent Inhibition,[1]; tetrapeptide 0.2 mM (1:2),73%
same,enhancement of post-ischemic functional recovery,[2]; LVDP recovery 15.3 ± 3.2 % (saline) to 50.5 ± 9.3% (drug),~3.5 fold
same,recovery of LVDP (percent of baseline pre-intervention value),[2]; [7],50.5 ± 9.3%
same,% Inhibition,[3]; compound/copper 1:1,1.3%
same,% Inhibition,[3]; compound/copper 2:1,96.2%
same,Absorbance at 532 nm,[3]; [8],0.751*
same,Absorbance at 532 nm,[3]; [9],0.029*
same,production of TBA-reactive substances (time course),"[3]; tetrapeptide/copper ratio of 1:1, Figure 15A",slowed the production of TBA-reactive substances
same,formation of TBA-reactive substances (time course),"[3]; tetrapeptide/copper ratio of 2:1, Figure 15A",prevented all formation of TBA-reactive substances
same,level of inhibition of production of TBA-reactive substances,"[3]; tetrapeptide/copper ratio of 2:1, by 24 hours",50%
same,level of inhibition of production of TBA-reactive substances,"[3]; tetrapeptide/copper ratio of 2:1, by 48 hours",20%
same,inhibition of production of TBA-reactive substances,"[3]; tetrapeptide/copper ratio of 2:1, during the first 4 hours of incubation",95%
same,preventing the formation of TBA-reactive species,"[3]; tetrapeptide/copper ratio of 2:1, pH 6.0",ineffective
same,inhibition of the formation of TBA-reactive species,"[3]; tetrapeptide/copper ratio of 2:1, pH 7.0-8.5",> 95%
same,inhibition of the formation of hydroxyl radicals,"[3]; tetrapeptide/copper ratios of 2:1 or higher, CuCl2 10µM, 0.5 mM ascorbic acid",complete inhibition
same,preventing the formation of DNA strand breaks,"[4]; 17 µg/ml pBR322, 50 µM CuCl2, 2.5 mM ascorbate, tetrapeptide 0-200 µM",very effective at preventing the formation of DNA strand breaks
same,DNA forms visible on the gel,[4]; tetrapeptide:copper ratios 2:1 and greater (optimal protective ratios),superhelical circular DNA was still visible
same,DNA forms visible on the gel,[4]; tetrapeptide:copper ratios of 1:1 or less,"nicked circular DNA, linear DNA and more damaged DNA (smears) were visible"
"CC(C)[C@H](NC(=O)[C@H](CCC(=O)O)NC(=O)[C@H](CO)NC(=O)[C@H](CCCCN)NC(=O)[C@H](Cc1c[nH]cn1)NC(=O)[C@H](C)N)C(=O)N[C@@H](C)C(=O)N[C@@H](Cc1c[nH]cn1)C(=O)N[C@@H](CCCNC(=N)N)C(=O)N[C@@H](Cc1ccccc1)C(=O)N[C@@H](CCCCN)C(=O)O [L-Ala L-His L-Lys L-Ser L-Glu L-Val L-Ala L-His L-Arg L-Phe L-Lys, reference compound] (H-AHKSEVAHRFK-OH)",% Inhibition,[3]; compound/copper 1:1,11.6%
same,% Inhibition,[3]; compound/copper 2:1,95.1%
same,Absorbance at 532 nm,[3]; [10],0.843
same,Absorbance at 532 nm,[3]; [11],0.047
CC(C)[C@H](NC(=O)[C@H](CCC(=O)O)NC(=O)[C@H](CO)NC(=O)[C@H](CCCCN)NC(=O)[C@H](Cc1c[nH]cn1)NC(=O)[C@H](C)NC(=O)[C@@H](N)CC(=O)O)C(=O)N[C@@H](C)C(=O)N[C@@H](Cc1c[nH]cn1)C(=O)N[C@@H](CCCNC(=N)N)C(=O)N[C@@H](Cc1ccccc1)C(=O)N[C@@H](CCCCN)C(=O)O [L-Asp L-Ala L-His L-Lys L-Ser L-Glu L-Val L-Ala L-His L-Arg L-Phe L-Lys] (H-DAHKSEVAHRFK-OH),% Inhibition,[3]; compound/copper 1:1,13.2%
same,% Inhibition,[3]; compound/copper 2:1,95.8%
same,Absorbance at 532 nm,[3]; [8],0.645
same,Absorbance at 532 nm,[3]; [9],0.040
C[C@@H](NC(=O)[C@H](N)CC(=O)O)C(=O)N[C@H](Cc1c[nH]cn1)C(=O)N[C@H](CCCCN)C(=O)O [D-Asp D-Ala D-His D-Lys] (H-[dD][dA][dH][dK]-OH),A532,"[5]; Cu(II):D-Tetrapeptide 1:1, D-tetrapeptide 10 µM, control 0.767",0.751
same,% Inhibition,"[5]; Cu(II):D-Tetrapeptide 1:2, D-tetrapeptide 20 µM",96.2%
same,A532,"[5]; Cu(II):D-Tetrapeptide 1:2, D-tetrapeptide 20 µM, control 0.767",0.029
same,% Inhibition,"[5]; Cu(II):D-Tetrapeptide 1:4, D-tetrapeptide 40 µM",97.9%
same,A532,"[5]; Cu(II):D-Tetrapeptide 1:4, D-tetrapeptide 40 µM, control 0.767",0.016
same,A532,"[5]; Cu(II):D-Tetrapeptide 2:1, D-tetrapeptide 5 µM, control 0.767",0.743
same,A532,"[5]; Cu(II):D-Tetrapeptide 2:3, D-tetrapeptide 15 µM, control 0.767",0.774
same,A532,"[5]; Cu(II):D-Tetrapeptide 4:1, D-tetrapeptide 2.5 µM, control (1:0) 0.767",0.751
same,A532,"[5]; Cu(II):D-Tetrapeptide 4:5, D-tetrapeptide 12.5 µM, control 0.767",0.789
same,A532,"[5]; Cu(II):D-Tetrapeptide 4:7, D-tetrapeptide 17.5 µM, control 0.767",0.737
same,Contracture Initiation,"[2]; 30 min global, zero flow ischaemia, drug 16.7 mg/mL infused 2 min before ischemia (final 1/11th), mean ± SEM, 6 hearts, saline control 9.2±1.6",11.9 ± 1.7 min
same,Contracture Time-to-50%,"[2]; 30 min global, zero flow ischaemia, mean ± SEM, 6 hearts, saline control 15.1±0.5",16.5 ± 0.9 min
same,Contracture Time-to-peak,"[2]; 30 min global, zero flow ischaemia, mean ± SEM, 6 hearts, saline control 19.8±0.6",21.7 ± 1.2 min
same,Contracture Peak,"[2]; 30 min global, zero flow ischaemia, mean ± SEM, 6 hearts, saline control 93.7±3.0",89.5±3.0 mmHg
same,left ventricular end diastolic pressure (LVEDP) during reperfusion,"[2]; 40 min reperfusion, versus saline control, difference significant at every time point",normalized their LVEDP more quickly and more completely
same,recovery of LVDP (percent of baseline pre-intervention value),[2]; [7],50.5 ± 9.3%
same,perfusion pressure (% of pre-intervention value),"[2]; end of the 40 min reperfusion period, saline control 109.9 ± 8.2%, difference not significant",87.4 ± 8.0%
same,heart rate (percentage of the pre-intervention baseline value),"[2]; post-ischemic reperfusion, saline control 115.0 ± 3.8",127.2 ± 22.8%
same,Infarct Volume,"[6]; individual treated animals (#1, #3, #5, #7), 20 mg/kg intravenous before MCA occlusion and again before reperfusion, 24 hours after occlusion, 20 mg/kg",11.5 mm^3 and 14.7 mm^3 and 43.3 mm^3 and 10.9 mm^3
same,"Neurological Scale, Day 0","[6]; individual treated animals, day of ischemia surgery (1 hour after reperfusion), score 0 normal to 4 no spontaneous gait, 20 mg/kg intravenous twice",2
same,"Neurological Scale, Day 1","[6]; individual treated animals, one day after ischemia surgery (24 hours after reperfusion), score 0 normal to 4, controls all 2",1 (3×) and 2
same,"Infarct Volume, Mean","[6]; mean of 4 treated animals (S.E.M. 7.7), 20 mg/kg intravenous twice, control mean 34.6",20.1 mm^3
"CC(=O)N[C@@H](CC(=O)O)C(=O)N[C@@H](C)C(=O)N[C@@H](Cc1c[nH]cn1)C(=O)N[C@@H](CCCCN)C(=O)N[C@@H](CO)C(=O)N[C@@H](CCC(=O)O)C(=O)N[C@H](C(=O)N[C@@H](C)C(=O)N[C@@H](Cc1c[nH]cn1)C(=O)N[C@@H](CCCNC(=N)N)C(=O)N[C@@H](Cc1ccccc1)C(=O)N[C@@H](CCCCN)C(=O)O)C(C)C [Acetylated-L-Asp L-Ala L-His L-Lys L-Ser L-Glu L-Val L-Ala L-His L-Arg L-Phe L-Lys, reference compound] (Ac-DAHKSEVAHRFK-OH)",% Inhibition,[3]; compound/copper 1:1,16.9%
same,% Inhibition,[3]; compound/copper 2:1,27.5%
same,% Inhibition,"[3]; compound/copper 2:1, listed as peptide with acetylated aspartic acid as the N-terminal amino acid",about 28%
same,Absorbance at 532 nm,[3]; [8],0.633
same,Absorbance at 532 nm,[3]; [9],0.692
"CC(C)[C@H](NC(=O)[C@H](CCC(=O)O)NC(=O)[C@H](CO)NC(=O)[C@H](CCCCN)NC(=O)[C@@H](N)Cc1c[nH]cn1)C(=O)N[C@@H](C)C(=O)N[C@@H](Cc1c[nH]cn1)C(=O)N[C@@H](CCCNC(=N)N)C(=O)N[C@@H](Cc1ccccc1)C(=O)N[C@@H](CCCCN)C(=O)O [His Lys Ser Glu Val Ala His Arg Phe Lys, L-His L-Lys L-Ser L-Glu L-Val L-Ala L-His L-Arg L-Phe L-Lys, reference compound] (H-HKSEVAHRFK-OH)",% Inhibition,[3]; compound/copper 1:1,24.9%
same,% Inhibition,[3]; compound/copper 2:1,46.6%
same,% Inhibition,"[3]; compound/copper 2:1, listed as peptide with histidine in the first position",about 47%
same,Absorbance at 532 nm,[3]; [10],0.716
same,Absorbance at 532 nm,[3]; [11],0.509
